According to the supplement of paper PMC6135742:
Structures can show the parent of a compound that is named as a salt. ± gives the standard deviation of the averaged measurements. In all, about 2,600 compounds were measured (“total cell number (DAPI+ nuclei) relative to DMSO vehicle control”: median about -1.4, lowest 2% from about -23 on). The list shows a part of the results.

These compounds were tested on jimpy (Plp1 jimpy) mouse iPSC-derived oligodendrocyte progenitor cells (assay: total cell number (DAPI+ nuclei) relative to DMSO vehicle control (SDs above negative control mean); higher = more surviving cells). Details: 10 µM; 3 days.

| SMILES | total cell number |
| --- | --- |
| CC(C(O)c1ccc(O)cc1)N1CCC(Cc2ccccc2)CC1 (stereo unspecified) [Ifenprodil Tartrate] | 6.08 |
| CC(C(O)c1ccc(O)cc1)N1CCC(Cc2ccccc2)CC1 (stereo unspecified) [Ifenprodil tartrate] | 2.51 |
| O=c1ccn([C@@H]2O[C@H](COP(=O)(O)OP(=O)(O)O)[C@@H](O)[C@H]2O)c(=O)[nH]1 [Uridine 5'-diphosphate sodium] | -0.296 |
| C[C@@H]1C/C=C/C=C/C=C/C=C/[C@H](O[C@@H]2O[C@H](C)[C@@H](O)[C@H](N)[C@@H]2O)C[C@@H]2O[C@](O)(C[C@@H](O)C[C@H]3O[C@@H]3/C=C/C(=O)O1)C[C@H](O)[C@H]2C(=O)O [Natamycin] | -0.438 |
| COc1ccc(Cl)cc1C(=O)NCCc1ccc(S(=O)(=O)NC(=O)NC2CCCCC2)cc1 [Glybenclamide] | -1.49 |
| COc1ccc(Cl)cc1C(=O)NCCc1ccc(S(=O)(=O)NC(=O)NC2CCCCC2)cc1 [Glyburide] | 1.67 |
| Nc1nc(=O)n([C@@H]2CS[C@H](CO)O2)cc1F [Emtricitabine] | -1.83 |
| CCc1cccc(CC)c1NC(=O)N1Cc2[nH]nc(NC(=O)c3ccc(N4CCN(C)CC4)cc3)c2C1 | -17.5 |
| COC(=O)N[C@@H](C)CNc1nccc(-c2cn(C(C)C)nc2-c2cc(Cl)cc(NS(C)(=O)=O)c2F)n1 | -4.4 |
| CC[C@@H]1C(=O)N(C)c2cnc(Nc3ccc(C(=O)N[C@H]4CC[C@H](N5CCN(CC6CC6)CC5)CC4)cc3OC)nc2N1C(C)C [Volasertib (BI 6727)] | -14.6 |
| CC#C[C@]1(O)CC[C@H]2[C@@H]3CCC4=CC(=O)CCC4=C3[C@@H](c3ccc(N(C)C)cc3)C[C@@]21C [Mifepristone] | -3.26 ± 0.76 |
| COc1cccc2c1C(=O)c1c(O)c3c(c(O)c1C2=O)C[C@@](O)(C(=O)CO)C[C@@H]3O[C@H]1C[C@H](N)[C@H](O[C@@H]2CCCCO2)[C@H](C)O1 [Pirarubicin] | -22.5 |
| Cc1nc(C(=O)NCC(=O)O)c(O)c2ccc(Oc3ccccc3)cc12 | 3.22 |
| COC(=O)C1=CO[C@@H](O)[C@@H]2C(CO)=CC[C@H]12 [Genipin] | -0.955 ± 0.41 |
| CCCCCCNC(=O)n1cc(F)c(=O)[nH]c1=O [Carmofur] | -17 ± 11 |
| CCCOc1ccccc1-c1nc2[nH]nnc2c(=O)[nH]1 [Zaprinast] | -9.68 |
| CCCCOc1ccc(C(=O)Nc2ccc(F)cc2F)cc1 | 1.72 |
| Nc1nc(OCc2cc(Br)cs2)c2[nH]cnc2n1 [Lomeguatrib] | -1.88 ± 0.17 |
| CC(=O)Nc1nnc(S(N)(=O)=O)s1 [Acetazolamide] | -0.819 |
| CC(C)Oc1ccc2c(=O)c(-c3ccccc3)coc2c1 [Ipriflavone (Osteofix)] | -0.104 |
| Cc1cc(Nc2cc(N3CCN(C)CC3)nc(Sc3ccc(NC(=O)C4CC4)cc3)n2)n[nH]1 [VX-680 (Tozasertib, MK-0457)] | -24 |
| Clc1ccc2nsnc2c1NC1=NCCN1 [Tizanidine HCl] | 0.414 |
| Clc1ccc2nsnc2c1NC1=NCCN1 [Tizanidine hydrochloride] | -1.21 |
| Cc1cc(C(C)Nc2ccccc2)c2nc(N3CCOCC3)cc(=O)n2c1 (stereo unspecified) | -11.4 |

| SMILES | total cell number |
| --- | --- |
| O=C(O)CCC(C(=O)O)N1C(=O)c2ccccc2C1=O [L-Glutamic acid, N-phthaloyl-] | -0.877 |
| NC1(Cc2ccc(Cl)cc2)CCN(c2ncnc3[nH]ccc23)CC1 | -7.73 |
| CCOC(=O)C1=C(N)Oc2ccc(Br)cc2C1C(C#N)C(=O)OCC (stereo unspecified) | -0.448 |
| O=C1O[C@H]([C@@H](O)CO)C([O-])=C1O.[Na+] [Sodium ascorbate] | 0.261 |
| CCCCOc1cc(C(=O)OCCN(CC)CC)ccc1N [Oxybuprocaine HCl] | 3.12 |
| N#C/C(=C1/SC[C@@H](c2ccc(Cl)cc2Cl)S1)n1ccnc1 [Luliconazole] | 4.6 |
| COC(=O)[C@H](Cc1ccccc1)NC(=O)[C@@H](N)CC(=O)O [Aspartame] | 1.78 |
| CCS(=O)(=O)c1cccc(-c2cc(C(=O)NC3CCN(C)CC3)c(C)c3[nH]c4ncc(C)cc4c23)c1 | -11.1 |
| Clc1ccc(C2(c3ccc(-c4cn[nH]c4)cc3)CCNCC2)cc1 | -15.2 |
| C[C@]12CC[C@@H]3c4ccc(O)cc4C[C@@H](CCCCCCCCC[S+]([O-])CCCC(F)(F)C(F)(F)F)[C@H]3[C@@H]1CC[C@@H]2O (stereo partly specified) [Fulvestrant] | -1.29 ± 0.8 |
| C=C[C@](C)(O)CC[C@@H]1[C@@]2(C)CCCC(C)(C)[C@@H]2CC[C@@]1(C)O [Sclareol] | -13.2 |
| CO/N=C(\C(=O)N[C@@H]1C(=O)N2C(C(=O)O)=C(COC(C)=O)CS[C@H]12)c1csc(N)n1 [Cefotaxime sodium] | -1.18 |
| Nc1ccc(S(=O)(=O)Nc2nccs2)cc1 [Sulfathiazole] | -2.52 |
| O=C(O)c1cccc(-c2noc(-c3ccccc3F)n2)c1 [Ataluren (PTC124)] | -0.157 |
| CC(C)[N+]1(C)[C@@H]2CC[C@H]1C[C@@H](OC(=O)C(CO)c1ccccc1)C2 (stereo partly specified) [Ipratropium bromide] | -0.664 |
| CC(C)[N+]1(C)[C@@H]2CC[C@H]1C[C@@H](OC(=O)C(CO)c1ccccc1)C2 (stereo partly specified) [Ipratropium Bromide] | 0.67 |
| Cc1ccc(-c2cc(C(F)(F)F)nn2-c2ccc(S(N)(=O)=O)cc2)cc1 [Celecoxib] | 0.578 ± 0.53 |
| CN1CCc2nc(C(=O)N[C@@H]3C[C@@H](C(=O)N(C)C)CC[C@@H]3NC(=O)C(=O)Nc3ccc(Cl)cn3)sc2C1 [Edoxaban] | 1.13 |
| OCCn1cc(-c2ccc3c(c2)CC/C3=N\O)c(-c2ccncc2)n1 | 8.12 |
| CC[C@H]1OC(=O)[C@H](C)[C@@H](O[C@H]2C[C@@](C)(OC)[C@@H](O)[C@H](C)O2)[C@H](C)[C@@H](O[C@@H]2O[C@H](C)C[C@H](N(C)C)[C@H]2O)[C@](C)(O)C[C@@H](C)CN(C)[C@H](C)[C@@H](O)[C@]1(C)O [Azithromycin dihydrate] | -4.55 |
| CC[C@H]1OC(=O)[C@H](C)[C@@H](O[C@H]2C[C@@](C)(OC)[C@@H](O)[C@H](C)O2)[C@H](C)[C@@H](O[C@@H]2O[C@H](C)C[C@H](N(C)C)[C@H]2O)[C@](C)(O)C[C@@H](C)CN(C)[C@H](C)[C@@H](O)[C@]1(C)O [Azithromycin] | -5.9 |
| CCn1c(N)c(C(=O)NC)c(=O)c2ccc(C#CC(C)(O)COC)nc21 (stereo unspecified) | -4.74 |
| COCCNC(=O)COc1ccc(OCCNC[C@H](O)COc2ccccc2)cc1 [ZD 7114 hydrochloride] | -0.987 |
| CN[C@H]1CC[C@@H](c2ccc(Cl)c(Cl)c2)c2ccccc21 [Sertraline hydrochloride] | -11.1 |

| SMILES | total cell number |
| --- | --- |
| CN[C@H]1CC[C@@H](c2ccc(Cl)c(Cl)c2)c2ccccc21 [Sertraline HCl] | -15.3 |
| CCN(CC)CCNC(=O)c1ccc(N)cc1 [Procainamide hydrochloride] | -1.63 |
| NC[C@H](O)c1ccc(O)c(O)c1 [Noradrenaline bitartrate monohydrate] | 0.445 |
| c1ccc2c(c1)CC(N1CCN(c3cccc4c3OCCO4)CC1)C2 | 3.03 |
| Cc1c(-c2ccc(O)cc2)n(Cc2ccc(OCCN3CCCCCC3)cc2)c2ccc(O)cc12 [Bazedoxifene HCl] | -14.4 |
| C=C[C@]1(C)C[C@@H](OC(=O)CSC(C)(C)CNC(=O)[C@H](N)C(C)C)[C@]2(C)[C@H](C)CC[C@]3(CCC(=O)[C@H]32)[C@@H](C)[C@@H]1O [Valnemulin HCl] | -4.11 |
| c1cc(CN2CCCCC2)cc(OCCCNc2nc3ccccc3s2)c1 | -4.93 |
| CCc1cc2c(cc1CC)CC(NC[C@H](O)c1ccc(O)c3[nH]c(=O)ccc13)C2 [Indacaterol Maleate] | -6.46 |
| COCC(=O)NC/C=C/c1ccc2ncnc(Nc3ccc(Oc4ccc(C)nc4)c(C)c3)c2c1 | -6.54 |
| Cn1c(=O)c2c(ncn2CC2OCCO2)n(C)c1=O [Doxofylline] | -0.607 |
| CN1CCN(CC(=O)N2c3ccccc3C(=O)Nc3cccnc32)CC1 [Pirenzepine dihydrochloride] | 0.73 |
| CC(C)NC[C@@H](C(=O)N1CCN(c2ncnc3c2[C@H](C)C[C@H]3O)CC1)c1ccc(Cl)cc1 | -8.76 |
| O=C1c2c(O)cc(O)cc2O[C@H](c2ccc(O)c(O)c2)[C@H]1O (racemic) [(±)-Taxifolin] | -0.904 |
| CC(C)(C)c1cc(C(C)(C)C)c(NC(=O)c2c[nH]c3ccccc3c2=O)cc1O [Ivacaftor (VX-770)] | 4.13 |
| Cc1ccc([C@@H]2O[C@H](CO)[C@@H](O)[C@H](O)[C@H]2O)cc1Cc1ccc(-c2ccc(F)cc2)s1 [Canagliflozin] | -1.17 |
| COC(=O)Nc1nc2cc(Sc3ccccc3)ccc2[nH]1 [Fenbendazole] | -6.32 |
| COc1cccc(C=NCCN=Cc2cccc(OC)c2[O-])c1[O-].[Cl-].[Mn+3] | 0.358 |
| CNCCc1cnc(CCC(c2ccccc2)c2ccccc2)[nH]1 [N-Methylhistaprodifen dioxalate salt] | -8.93 |
| CCOC(=O)[C@H]1O[C@@H]1C(=O)N[C@@H](CC(C)C)C(=O)NCCC(C)C [Aloxistatin] | -3.84 |
| C=CC(=O)Nc1cccc(Sc2nc(Nc3ccc(N4CCN(C)CC4)cc3)ncc2Cl)c1 | -26.9 |
| O=C(Nc1cccnc1)c1cc(-c2ccnc(F)c2)ccc1OCc1ccccc1 | -3.79 |
| COC(=O)C1=C(C)NC(C)=C(C(=O)OC(C)(C)CN(C)CCC(c2ccccc2)c2ccccc2)C1c1cccc([N+](=O)[O-])c1 (stereo unspecified) [Lercanidipine hydrochloride hemihydrate] | -8.91 |
| C[C@]12CCC(=O)C=C1CC[C@@H]1[C@@H]2CC[C@@]2(C)[C@H]1CC[C@]2(O)C(=O)CO [Cortexolone] | -0.524 |
